For four compounds, IC50 results are on record in US11254689B2, “Compounds” (priority 2017, dated 2022).

The test relates to Mycobacterium tuberculosis H37Rv in human macrophages THP-1. Briefly: Mycobacterium tuberculosis in vitro H37Rv in human macrophages THP-1 inhibition assay (intracellular assay). The note with it: THP-1, intracellular H37Rv in THP-1 macrophages, without the presence of ethionamide.
Regarding `O=C(CCC(F)(F)F)N1CCC2(CC1)CC(OCC(F)(F)F)=NO2` [Example 1, 4,4,4-trifluoro-1-[3-(2,2,2-trifluoroethoxy)-1-oxa-2,8-diazaspiro[4.5]dec-2-en-8-yl]butan-1-one], the IC50 is below 500 nM.
Consider `CCCOC1=NOC2(CCN(C(=O)CCC(F)(F)F)CC2)C1` [Example 2, 4,4,4-trifluoro-1-(3-propoxy-1-oxa-2,8-diazaspiro[4.5]dec-2-en-8-yl)butan-1-one], for which the 50% inhibitory concentration (IC50) was below 500 nM.
Regarding `CCCCCCOC1=NOC2(CCN(C(=O)CCC(F)(F)F)CC2)C1` [Example 4, 4,4,4-trifluoro-1-(3-hexyloxy-1-oxa-2,8-diazaspiro[4.5]dec-2-en-8-yl)butan-1-one], the IC50 is below 500 nM.
For the compound `CC1=NOC2(CCN(C(=O)CCC(F)(F)F)CC2)C1` [Example 9, 4,4,4-trifluoro-1-(3-methyl-1-oxa-2,8-diazaspiro[4.5]dec-2-en-8-yl)butan-1-one], the IC50 was below 500 nM.

One may read the IC50 as the concentration at which inhibition is half-maximal.
